Tests used:
Shh = assay: Western blot binding to purified and cell-expressed Shh; parameters: species or system human; conditions: purified Shh and Shh expressed endogenously and/or exogenously in cells
Description: FIGS. 15A and 15B. Antibodies bind target SHh via Western blot. (FIG. 15A) Purified, recombinant human Shh (19.7 kDa, >98% purity by SDS-PAGE) was probed by the indicated antibodies. (FIG. 15B) Cell lysates from HEK-293T cells (PHX—Phoenix cells), with or without exogenous expression of full-length Shh, and A549 cells were probed with the antibodies produced by clones 2G4 and 2D9. Full-length Shh: ˜50 kDa; N-terminal Shh: ˜19 kDa; C-terminal Shh: ˜25 kDa. Sample 2 was lysate from PHX cells transfected with full-length Shh DNA for about 24 hours. The exogenously expressed Shh appears to be cleaved into N-terminal and C-terminal Shh peptides. Both PHX cells and A549 cells endogenously express Shh.

[1] = molecular target: T1, cell-surface Sonic Hedgehog on A549 cells (Homo sapiens, UniProt Q15465); assay: FACS of non-permeabilized A549 cells labeled with anti-Shh antibodies; format: binding; conditions: A549, without membrane permeabilization
T1 construct: recognize cell-surface expression of Sonic Hedgehog, A549 cells were labeled with in-house antibodies; endogenous in cells; host or cells: A549
Procedure: (§1) A549, 293T or 293T (+pCMV Shh) cells were labeled with Sonic Hedgehog (Shh) antibody (Abcam 53281, 1:100) or therapeutic test antibodies (1:100) for 1 hour at RT post serum blocking. Following two PBS washes, a FITC-conjugated secondary antibody (Abcam 97029, 1:100) or an Alexa-Fluor 647 (Invitrogen, 1:1000) was used to label cells. Samples were screened by flow cytometry using an Accuri™ C6 machine (BD Biosciences). For fluorescence activated cell sorting, samples were sorted using an S3e™ Cell Sorter (Bio-Rad) and the Shh+ population was collected. For all experiments, cells processed without primary antibody served as a negative control. Experiments were performed in duplicates or triplicates.
To corroborate that the two anti-Shh antibodies, 1C11-2G4 and 1C11-2D9, recognize cell-surface expression of Sonic Hedgehog, A549 cells were labeled with in-house antibodies and sorted via Fluorescence Activated Cell Sorting (FACS) without membrane permeabilization. […] BMC Cancer. 15:84 (2015); Singh S, Trevino J, Bora-Singhal N, Coppola D, Haura E, Altiok S, Chellappan S P. EGFR/Src/Akt signaling modulates Sox2 expression and self-renewal of stem-like side-population cells in non-small cell lung cancer. Mol Cancer. 11:73 (2012); Cochrane C R, Szczepny A, Watkins D N, Cain J E. Hedgehog Signaling in the Maintenance of Cancer Stem Cells. Cancers (Basel). […]

Shh in A549 cells = molecular target: T2, Shh in A549 cells (Homo sapiens, UniProt Q15465); assay: Flow cytometry of purified antibodies on A549 cells (vector control or pCMV-Shh); format: binding
T2 construct: 1) 293T (endogenous Shh), 2) 293T (bearing exogenously transfected Shh) and 3) A549 (Shh-expressing); endogenous in cells; host or cells: 293T and A549 (endogenous); also 293T and A549 transiently transfected with pCMV-Shh (Origene)
Procedure: as §1
For the purpose of selecting the best C-term Shh antibodies from over 50 hybridoma clones, two sets of screening assays were designed. First, the same Shh C-term peptides (AA 247-264 and 448-462, KLH-free version) used to mount an immune response in mice was employed in an ELISA-based assay with supernatants from antibody-producing hybridoma clonal cells. […] To confirm specific recognition, A549 (+vector control) cells and A549 cells transfected with exogenous Shh were labeled with 2G4 and 2D9 and assessed via flow cytometry. […] Finally, the Kd values of both antibodies with recombinant full-length Shh were calculated and nanomolar binding affinities were observed (FIG. 48C).

Shh protein = assay: Ex vivo Shh staining of excised A549 xenograft tumors; format: in vivo, mice; conditions: intra-tumor antibody 158 μg; compared to control tumor samples
Procedure: The in vivo effect of the C-terminal Shh antibodies were tested using the A549 cell subcutaneous xenograft tumor model in mice, as described in Example 1. After xenograft formation, animals were intra-tumor injected with a C terminal Shh antibody (2G4 or 2D9; each at 158 μg), or a control solution, 3 times a week for about 3 weeks (at 2-3 day intervals). Tumor volume was determined, as described in Example 1, every 2 days. Weight and size of the excised tumor were determined after the antibody treatment. […]
Control IgG and Ab 1C11-2G4-treated A549 tumors harvested from mice were sectioned ([…]) and stained with a commercially available Sonic Hedgehog (Shh) antibody (Abcam 53281, 1:100) post acetone fixation, 0.2% Triton-X 100 permeabilization and serum blocking steps. […] DAPI (Vector Laboratories) mounting medium were used to stain sections prior to imaging at 20× magnification using a Zeiss Axiolmager 2 fluorescence microscope. […]
To assess the effects of antibody administration on hedgehog epitope occupancy, tumors were sectioned and stained with a commercial antibody specific for sonic hedgehog (Shh). […] Confirmatory results were observed when ground up permeabilized tumor cells were labeled with the commercially available Shh antibody and assessed using flow cytometry; 1C11-2G4-treated tumors (20%-Shh-labeled) contrasted with IgG controls (80%-Shh-labeled) (FIG. 46B).

Shh+ cells recognized from a mixed population (FACS) [1]: 0.05%
endogenous Shh recognized (flow cytometry) (Shh in A549 cells; A549 (+vector control)): 0.4%
exogenous Shh recognized (flow cytometry) (Shh in A549 cells; A549 cells transfected with exogenous Shh): 4.1%
B1: 2D9: purified mouse monoclonal C-terminal Shh antibody from hybridoma sub-clone 2D9 of clone 1C11, IgG1 kappa (antibody)
heavy: EVKLVESGGGLVKPGGSLKLSCAASGFTFSSYTMSWVRQTPAKRLEWVATISSGGGNTYYPDSVKGRFTISRDNARNTLYLQMSSLRSEDTAMYYCARDYRSLFAYWGQGTLVTVSAAKTTPPSVYPLAPGSAAQTNSMVTLGCLVKGYFPEPVTVTWNSGSLSSGVHTFPAVLQSDLYTLSSSVTVPSSTWPSETVTCNVAHPASSTKVDKKIVPRDCGCKPCICTVPEVSSVFIFPPKPKDVLTITLTPKVTCVVVDISKDDPEVQFSWFVDDVEVHTAQTQPREEQFNSTFRSVSELPIMHQDWLNGKEFKCRVNSAAFPAPIEKTISKTKGRPKAPQVYTIPPPKEQMAKDKVSLTCMITDFFPEDITVEWQWNGQPAENYKNTQPIMDTDGSYFIYSKLNVQKSNWEAGNTFTCSVLHEGLHNHHTEKSLSHSPGK
light: QIVLTQSPAIMSASPGEKVTITCSASSSVSYMHWFQQKPGTSPKLWIYSTSNLASGVPARFSGSGSGTSYSLTISRMEAEDAATYYCQQRSSYPFTFGSGTKLEIKRADAAPTVSIFPPSSEQLTSGGASVVCFLNNFYPKDINVKWKIDGSERQNGVLNSWTDQDSKDSTYSMSSTLTLTKDEYERHNSYTCEATHKTSTSPIVKSFNRNEC
binding to Shh by Western blot (Shh): bound to purified Shh
cells expressing Shh protein in excised tumor (immunostaining) (Shh protein): fewer cells expressing Shh protein
